# About 7,500 (2.1%) of roughly 360,000 compounds were called active. Inconclusive results, whose numbers are uncertain, are shown with a selection of clear calls. The call rests on the fitted dose curve; in most records, active means well fitted cell-killing curve with a large enough effect; inconclusive means small, poorly fitted or top-dose-only effect, or effect the other way, or another doubt; inactive means no such curve, though single readings can be large or run the other way. Potencies of inconclusive entries are left out as doubtful fits.
# Test: qHTS for induction of synthetic lethality in tumor cells producing 2HG: qHTS for the HT-1080-IDH1KD cell line;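 on activity, negative = toxicity: 0% = DMSO wells and -100% = cell-free medium wells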
# Details: HT-1080 IDH1 knockdown viability, ATP luminescence, 48 h; activity, negative = toxicity: at 46.1 µM (top of the series) unless noted
# In short: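 HT-1080-IDH1KD cells (IDH1 knocked down), 750/well in RPMI with 5% FBS, treated with compound 48 h at 37 degrees C. Viability by CellTiter-Glo luminescence, normalised to DMSO and no-cell wells; concentration-response curves classed.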
# Potency means the concentration at half of the fitted maximal effect; tags describe the fitted curve by direction and shape.
SMILES,"activity, negative = toxicity",Potency
O=C(O)c1ccc(CNC(=O)C23CC4CC(CC(C4)C2)C3)cc1,inactive: 13.1%,
CCSc1nc(N)c(C#N)c(-c2ccccc2Cl)c1C#N,,"inconclusive [cytotoxic, single point]"
CCC(C)NCC(O)(c1ccc(Cl)cc1)c1ccc(Cl)cc1 (configuration not stated),,"inconclusive [cytotoxic, single point]"
CCOc1ccc(CC(=O)NCC2(N3CCCCC3)CCCCC2)cc1,inactive: 7.55%,
C=CCNC(=O)N1CCCC(C(=O)c2cccc(OC(C)C)c2)C1 (configuration not stated),inactive: -6.02%,
Cc1ccc(-c2nnn(CC(=O)Nc3ccc(S(=O)(=O)N4CCC(C)CC4)cc3)n2)cc1,,active: 11.6 µM
Cc1ccc(C)c(OCc2cc(C(=O)NC3CCN(Cc4ccccc4)CC3)no2)c1,,"inconclusive [cytotoxic, single point]"
O=c1c2ccccc2nc(/C=C/c2cccc(Br)c2)n1CCCO,,"inconclusive [cytotoxic, single point]"
CCN(C(=O)c1cccnc1SC)C12CC3CC(CC(C3)C1)C2,inconclusive: -30.9% [cytotoxic],
CCCc1ccc(OCC(=O)Nc2cc(S(=O)(=O)CC)ccc2O)cc1,,"inconclusive [cytotoxic, single point]"
CC(C)C[C@H](NC(=O)c1[nH]cnc1C(=O)Nc1ccccc1)C(=O)OC(C)(C)C,,"inconclusive [cytotoxic, single point]"
COc1cc(CNc2ncnc3c2ncn3[C@H]2CN(Cc3ccc(-c4ccccc4)cc3)C[C@@H](CO)O2)cc(OC)c1OC,,"inconclusive [cytotoxic, partial curve]"
Cc1c(C(=O)NCc2ccccn2)sc2nc(-c3ccccc3)cn12,,"inconclusive [cytotoxic, full curve]"
COc1ccccc1Nc1nc(NCC2CCCO2)c2ccccc2n1 (configuration not stated),,"inconclusive [cytotoxic, single point]"
CCCN1CCN(CCCNC(=S)Nc2ccc(F)cc2)CC1,inactive: 6.36%,
O=C(Nc1ccccc1)c1cnc(-c2ccccc2)nc1-c1ccccc1,,"inconclusive [cytotoxic, single point]"
Cc1ccc2nc(-c3ccc(Cl)cc3)c(Cc3cccc(Cl)c3)n2c1,,"inconclusive [cytotoxic, single point]"
COc1ccccc1NC(=O)COC(=O)c1ccc2c(c1)nc(C)n2-c1ccccc1,inconclusive: 30.8%,
Cc1ccc(S(=O)(=O)NC(=O)Nc2cccc(S(=O)(=O)N(C)C)c2)cc1,inactive: 6.62%,
C[C@H](CO)N1C[C@H](C)[C@@H](CN(C)CC2CCCCC2)Oc2c(NC(=O)CCC(F)(F)F)cccc2C1=O,inactive: -24.9%,
CC1=C(C(=O)Nc2cccnc2)C(c2cccnc2)n2ncnc2N1 (configuration not stated),,"inconclusive [rising, partial curve]"
COc1ccc(-c2ccc(C3C(C#N)=C(N)Oc4n[nH]c(C)c43)o2)cc1 (configuration not stated),,"inconclusive [cytotoxic, single point]"
O=C(NCc1ccco1)C(=O)NCC1OCCN1S(=O)(=O)c1ccc(Br)cc1 (configuration not stated),,"inconclusive [rising, single point]"

SMILES,"activity, negative = toxicity",Potency
CCOC(=O)[C@@H]1[C@H]2COc3cc(OC)ccc3[C@H]2N2C(=O)N(c3ccc(Br)cc3)C(=O)[C@]12C,inactive: 1.09%,
O=C(Nc1cccc(-c2csc(Nc3ccc(Cl)cc3)n2)c1)c1cccc(C(F)(F)F)c1,,"inconclusive [cytotoxic, partial curve]"
O=C(CCn1c(=S)[nH]c2cc3c(cc2c1=O)OCO3)NCc1cccc(Cl)c1,inconclusive: -7.98% [cytotoxic],
COc1cc(/C=N/N=C(/N)c2nonc2N)cc(Br)c1OCc1cccc(C)c1,,"inconclusive [cytotoxic, single point]"
Cc1ccc(-c2ccc(CCC(=O)O)n2NC(=O)c2ccc([N+](=O)[O-])cc2)cc1,inactive: 2.94%,
O=C(COc1ccc2c3c(c(=O)oc2c1)CCCC3)NCc1ccccn1,,"inconclusive [rising, partial curve]"
Cc1onc(-c2c(F)cccc2Cl)c1-c1nnc(-c2ccc(C(F)(F)F)cc2)o1,,active: 25.9 µM
O=C(N/N=C\c1c(O)ccc2ccccc12)c1ccc(S(=O)(=O)N2CCCCC2)cc1,,"inconclusive [cytotoxic, full curve]"
Cc1cnc(CN2CCCC(C(=O)c3ccc4c5c(cccc35)CC4)C2)[nH]1 (configuration not stated),,"inconclusive [cytotoxic, single point]"
Cc1c(Br)c(C(=O)NCc2cc3cc(Cl)ccc3[nH]2)nn1C,,"inconclusive [cytotoxic, single point]"
CCc1nc(Sc2nnnn2-c2ccccc2)c2c3c(sc2n1)CCCC3,inactive: 3.12%,
CCOC(=O)Cn1c(S(=O)(=O)Cc2ccc(F)cc2)nc(-c2ccccc2)c1-c1ccccc1,,active: 6.31 µM
Cc1cc(NC(=O)c2cc(-c3ccc(O)cc3)on2)no1,,"inconclusive [cytotoxic, single point]"
COc1ccccc1Cc1c(-c2ccc(C#N)cc2)nc2ccc(Br)cn12,inactive: -17.4%,
CCCCNC(=S)N1CCn2cccc2C1c1ccc(F)cc1 (configuration not stated),,"inconclusive [cytotoxic, partial curve]"
Cc1ccccc1OCCCCCCN1CCNCC1,,"inconclusive [cytotoxic, partial curve]"
COc1ccc(/C=C/CN2CCC(CO)(Cc3ccccc3Cl)CC2)cc1,,active: 23.1 µM
O=C(CSc1nc2c(sc3ccccc32)c(=O)n1CCCN1CCCC1)NCc1ccco1,,"inconclusive [cytotoxic, single point]"
O=C1CC(SC(=Nc2ccccc2)Nc2ccccc2)C(=O)N1c1cccc(Cl)c1 (configuration not stated),,active: 23.1 µM
CC(C)(C)SCCNC(=O)c1ccc(NS(C)(=O)=O)cc1,inconclusive: 9.07% [cytotoxic],
CC(C)(C)NC(=O)[C@@H]1C[C@@H]2CCCC[C@@H]2CN1C[C@@H](O)[C@H](Cc1ccccc1)NC(=O)[C@H](CC(N)=O)NC(=O)c1ccc2ccccc2n1,,active: 23.1 µM
C=CCn1c(SCC(=O)Nc2ccc(O)cc2)nc2sc(CC)cc2c1=O,,"inconclusive [cytotoxic, single point]"
Cc1cccc(-c2c3c(=O)n(C)c(=O)n(C)c3cn2C(C)(C)C)c1,inactive: -7.99%,

SMILES,"activity, negative = toxicity",Potency
COC(=O)C1=C(C)OC(N)=C(C#N)C1c1ccccc1F (configuration not stated),inactive: -5.1%,
Cc1ccc(-c2csc(N=C(N)N)n2)c(C)c1,,"inconclusive [cytotoxic, single point]"
CC1(C(=O)Nc2cccc(C(F)(F)F)c2)Cc2c(-c3cccc(C(N)=O)c3)ccnc2O1 (configuration not stated),,"inconclusive [cytotoxic, partial curve, poor fit]"
N#Cc1cccc(S(=O)(=O)NNC(=O)C23CC4CC(CC(C4)C2)C3)c1,inactive: -1.68%,
CCOC(=O)Cc1csc(NC(=O)Nc2ccc(Cl)cc2)n1,,"inconclusive [cytotoxic, single point]"
C=C1C(=O)OCC2C(C(=O)O)=CC3C(C)C(C)=CC123 (configuration not stated),,"inconclusive [cytotoxic, partial curve]"
CN(C(=O)c1cccc(NC(=O)Cc2ccc(NC(=O)C3CCN(S(=O)(=O)c4cccc([N+](=O)[O-])c4)CC3)cc2)c1)C1CCCC1,inactive: -5.93%,
C/C(=N\NC(=O)c1ccc(NS(=O)(=O)c2cccs2)cc1)c1ccc(C(C)(C)C)cc1,,"inconclusive [cytotoxic, partial curve]"
Cc1[nH]c2ccccc2c1C1(O)C(=O)N(Cc2ccc3c(c2)OCO3)c2ccccc21 (configuration not stated),,"inconclusive [cytotoxic, single point]"
CC(C)CCNC(=O)c1c(CSc2ccc(Cl)cc2)noc1C(=O)NCc1ccccc1,inactive: 5.23%,
Cc1noc(C)c1S(=O)(=O)N(C)C[C@H]1Oc2c(NC(=O)Nc3ccc(C(F)(F)F)cc3)cccc2C(=O)N([C@H](C)CO)C[C@@H]1C,,"inconclusive [cytotoxic, single point]"
COc1cc(CC(=O)OCC(=O)c2ccc3c(c2)OCCO3)cc(OC)c1OC,,active: 1.46 µM
CCn1cc([N+](=O)[O-])c(C(=O)N2N=C(c3ccc(Cl)c(Cl)c3)CC2c2ccccc2O)n1 (configuration not stated),,"inconclusive [cytotoxic, single point]"
Cc1ccc(-n2c(O)c(C=Nc3ccccc3-c3n[nH]c(=S)[nH]c3=O)c3ccccc3c2=O)cc1C,,"inconclusive [cytotoxic, single point]"
O=C(NCc1cccs1)c1cc(-c2cccc(Cl)c2)on1,,"inconclusive [cytotoxic, single point]"
COCc1ccc(C(=O)N2CCc3c([nH]c4ccccc34)C2c2ccccn2)s1 (configuration not stated),,"inconclusive [cytotoxic, partial curve]"
Cc1csc2nc(CNS(=O)(=O)c3ccc(-c4ccccc4)cc3)cn12,inactive: -1.56%,
C=CCn1c(-c2cccn(Cc3ccc(Cl)cc3Cl)c2=O)n[nH]c1=S,inconclusive: -51.5%,
OC(CNCC1CCCO1)Cn1c2ccc(Br)cc2c2cc(Br)ccc21 (configuration not stated),,"inconclusive [cytotoxic, single point]"
CC(/C=C/c1ccc(N(C)C)cc1)=N/N=C1/NC(=O)CC(C(=O)Nc2ccc(Cl)cc2)S1 (configuration not stated),,active: 16.4 µM
OC(CN1C2=NCCN2c2ccccc21)c1ccc2c(c1)OCO2 (configuration not stated),,"inconclusive [cytotoxic, single point]"

# From PubChem BioAssay AID686971 (National Center for Advancing Translational Sciences (NCATS), 2013)
